In the BET-seq Pho4 binding data (Le et al. 2018):
The other results are listed elsewhere or left out. Values were computed here from the reads of four pooled replicates and scatter widely.

These sequences were tested against T1, Pho4 (S. cerevisiae) (UniProt P07270) (assay: relative binding free energy (BET-seq); higher = weaker binding). Conditions: reference: library average.
T1 sequence: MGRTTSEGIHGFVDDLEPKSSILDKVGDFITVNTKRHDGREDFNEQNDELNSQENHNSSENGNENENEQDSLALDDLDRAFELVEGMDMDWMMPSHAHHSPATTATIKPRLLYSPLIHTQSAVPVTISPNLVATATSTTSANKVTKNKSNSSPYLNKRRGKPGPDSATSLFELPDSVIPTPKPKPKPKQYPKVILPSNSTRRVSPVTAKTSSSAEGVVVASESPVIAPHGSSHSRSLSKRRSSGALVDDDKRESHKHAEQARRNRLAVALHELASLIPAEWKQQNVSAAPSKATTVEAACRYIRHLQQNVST

| Sequence | relative binding free energy [kcal/mol] |
| --- | --- |
| TAGGTCACGTGTAGTT | 0.09 |
| TGTGTCACGTGATACA | 0.28 |
| TGATACACGTGGCGTG | -0.26 |
| TTTTACACGTGCTGGA | 0.14 |
| GTGGACACGTGAATGT | 0.23 |
| ATTGGCACGTGAGTCG | 0.12 |
| AATTTCACGTGGTCGA | 0.21 |
| TTATGCACGTGAGCTT | 0.2 |
| TGGAGCACGTGGTATG | -0.24 |
| GGGAACACGTGGACGG | 0.05 |
| GATGTCACGTGGGGAA | 0 |
| GGTACCACGTGGTGAG | -0.05 |
| TAGTTCACGTGGAACG | 0.36 |
| ATTGTCACGTGGTAAA | 0.13 |
| GGTCGCACGTGGGAAT | -0.19 |
| TCTTTCACGTGATGTG | 0.39 |
| TTGTACACGTGGCGTG | -0.05 |
| CGGAGCACGTGTTGAG | -0.06 |
| ATGGTCACGTGGGCTG | -0.17 |
| AAAATCACGTGGTGGT | 0.04 |
| GAGATCACGTGATTTG | 0.31 |

| Sequence | relative binding free energy [kcal/mol] |
| --- | --- |
| TTGTACACGTGAAGAA | 0.26 |
| TAAGTCACGTGTAGCG | 0.08 |
| TTTCACACGTGTTGGA | 0.12 |
| TAATTCACGTGCTGTG | 0.09 |
| TTTGTCACGTGCTGAA | -0.06 |
| AGATGCACGTGGTGTA | -0.09 |
| TGGGTCACGTGTCGGT | 0.05 |
| GTGGGCACGTGCAGGT | -0.02 |
| GGGAACACGTGGCGTG | -0.19 |
| ATGAGCACGTGAGTCT | 0.25 |
| ACGTGCACGTGTCGTG | -0.16 |
| ATTGACACGTGTCAGG | 0.05 |
| TAGGACACGTGAGATG | 0.22 |
| AGCAGCACGTGGCGGT | -0.08 |
| TGGGCCACGTGAGGAG | -0.02 |
| GATTGCACGTGGTGGC | -0.04 |
| TTCTTCACGTGGAGCT | 0.4 |
| TCGTTCACGTGGAAAA | 0.48 |
| ATGGCCACGTGTGAGT | 0.06 |
| GATCGCACGTGGTATT | -0.02 |
| ATGTACACGTGTAGGT | 0.06 |

| Sequence | relative binding free energy [kcal/mol] |
| --- | --- |
| CTATACACGTGGGTGA | -0.13 |
| GTACTCACGTGTGTGA | 0.27 |
| AGGAGCACGTGTTTGG | -0.11 |
| TCAGGCACGTGGAGGG | -0.2 |
| GTGGGCACGTGTACAT | -0.04 |
| CGTTTCACGTGGTGTG | 0.21 |
| GTTGGCACGTGGTTCC | 0 |
| TGTTTCACGTGGCTCT | 0.27 |
| AGGCACACGTGAGTGA | 0.35 |
| CGTATCACGTGTGTGC | 0.06 |
| TATTCCACGTGTGGAG | 0.09 |
| CGGGACACGTGGGATG | -0.12 |
| GAAATCACGTGAGGTT | 0.51 |
| CGATGCACGTGGTGGC | -0.03 |
| TTTGTCACGTGTCGAA | 0.1 |
| ATAGGCACGTGGTCGT | -0.25 |
| AAGGACACGTGTTGTA | 0.04 |
| TGACTCACGTGGGTTC | 0.15 |
| GTAGACACGTGGATGT | 0.07 |
| CATAGCACGTGGGGAG | -0.24 |
| GGTATCACGTGAGAGT | 0.51 |
